# Assay results: the supplement of paper PMC6531468
# The other results are listed elsewhere or left out. These are enrichments in a pooled selection; single values are uncertain. Each score is taken over the longer molecules that contain the sequence shown.
# Key:
# Experiment in all cases: 6-mer SELEX enrichment z-score vs GST control; IMP3 is the RNA-binding protein IGF2BP3; higher = more enriched by binding
# IMP3 KH1-4 = settings: construct: KH1-4 (164-579); SELEX round: R4
# Experimental: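 SELEX-seq with GST-tagged IMP3 KH1-4 (Pro164-Lys579) and an N40 RNA pool, round 4. 6-mer z-score of sequence-tag enrichment normalised to the corresponding GST SELEX round; RNA k-mers written as DNA (T for U).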
# IMP3 RRM1-2 = settings: construct: RRM1-2 (1-163); SELEX round: R2
# Chain of IMP3 RRM1-2 (chain, as listed by the source): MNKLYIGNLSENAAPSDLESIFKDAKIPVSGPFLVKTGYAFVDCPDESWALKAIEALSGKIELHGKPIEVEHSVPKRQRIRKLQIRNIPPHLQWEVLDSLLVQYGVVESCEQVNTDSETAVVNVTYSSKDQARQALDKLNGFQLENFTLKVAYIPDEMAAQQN
# Experimental: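 SELEX-seq with GST-tagged IMP3 RRM1-2 (Met1-Asn163) and an N40 RNA pool, round 2. 6-mer enrichment z-score normalised to GST SELEX. RNA written as DNA (T = U).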
# IMP3 full-length = IMP3 full-length (UniProt O00425); settings: construct: FL IMP3 (1-579); SELEX round: R4
# Chain of UniProt O00425 (O00425 whole entry): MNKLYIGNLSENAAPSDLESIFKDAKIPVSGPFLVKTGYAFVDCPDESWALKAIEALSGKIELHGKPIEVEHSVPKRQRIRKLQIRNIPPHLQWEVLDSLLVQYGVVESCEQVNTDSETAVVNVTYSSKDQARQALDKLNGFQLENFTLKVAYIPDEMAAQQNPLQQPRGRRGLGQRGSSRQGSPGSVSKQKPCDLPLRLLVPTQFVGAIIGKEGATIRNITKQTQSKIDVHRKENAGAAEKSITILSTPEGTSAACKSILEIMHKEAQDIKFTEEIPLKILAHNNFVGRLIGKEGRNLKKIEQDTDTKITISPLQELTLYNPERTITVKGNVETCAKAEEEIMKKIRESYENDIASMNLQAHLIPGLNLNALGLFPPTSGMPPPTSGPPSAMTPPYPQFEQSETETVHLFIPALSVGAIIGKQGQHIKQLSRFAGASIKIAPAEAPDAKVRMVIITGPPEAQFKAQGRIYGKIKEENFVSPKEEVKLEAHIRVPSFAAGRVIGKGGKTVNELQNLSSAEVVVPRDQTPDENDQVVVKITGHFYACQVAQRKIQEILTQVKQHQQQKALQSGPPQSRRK
# Experimental: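 SELEX-seq with GST-tagged full-length IMP3 and an N40 RNA pool, round 4. Each 6-mer is scored as an enrichment z-score of sequence tags containing it, normalised to the matching GST SELEX round. RNA written as DNA (T = U).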
# IMP3 KH1-2 = settings: construct: KH1-2 (164-376); SELEX round: R4
# Chain of IMP3 KH1-2 (chain, as listed by the source): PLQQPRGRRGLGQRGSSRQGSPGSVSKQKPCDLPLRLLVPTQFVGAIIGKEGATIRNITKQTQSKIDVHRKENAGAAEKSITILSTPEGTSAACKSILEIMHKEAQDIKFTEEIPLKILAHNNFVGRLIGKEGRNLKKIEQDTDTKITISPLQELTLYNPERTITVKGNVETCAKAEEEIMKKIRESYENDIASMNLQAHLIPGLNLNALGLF
# Experimental: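 SELEX-seq with GST-tagged IMP3 KH1-2 (Pro164-Phe376) and an N40 RNA pool, round 4 (stringent 300/600 mM KCl washes). 6-mer z-score of sequence-tag enrichment normalised to the corresponding GST SELEX round; RNA k-mers written as DNA (T for U).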
# IMP3 KH3-4 = settings: construct: KH3-4 (377-579); SELEX round: R4
# Chain of IMP3 KH3-4 (chain, as listed by the source): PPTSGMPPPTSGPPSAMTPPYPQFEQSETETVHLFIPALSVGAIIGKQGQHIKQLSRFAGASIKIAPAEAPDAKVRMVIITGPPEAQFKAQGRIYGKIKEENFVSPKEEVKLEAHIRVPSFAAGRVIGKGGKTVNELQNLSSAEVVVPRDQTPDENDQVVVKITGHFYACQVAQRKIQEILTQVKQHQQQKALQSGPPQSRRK
# Experimental: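 SELEX-seq with GST-tagged IMP3 KH3-4 (Pro377-Lys579) and an N40 RNA pool, round 4. 6-mer z-score of sequence-tag enrichment normalised to the corresponding GST SELEX round; RNA k-mers written as DNA (T for U).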
# Chain of IMP3 KH1-4 (chain, as listed by the source): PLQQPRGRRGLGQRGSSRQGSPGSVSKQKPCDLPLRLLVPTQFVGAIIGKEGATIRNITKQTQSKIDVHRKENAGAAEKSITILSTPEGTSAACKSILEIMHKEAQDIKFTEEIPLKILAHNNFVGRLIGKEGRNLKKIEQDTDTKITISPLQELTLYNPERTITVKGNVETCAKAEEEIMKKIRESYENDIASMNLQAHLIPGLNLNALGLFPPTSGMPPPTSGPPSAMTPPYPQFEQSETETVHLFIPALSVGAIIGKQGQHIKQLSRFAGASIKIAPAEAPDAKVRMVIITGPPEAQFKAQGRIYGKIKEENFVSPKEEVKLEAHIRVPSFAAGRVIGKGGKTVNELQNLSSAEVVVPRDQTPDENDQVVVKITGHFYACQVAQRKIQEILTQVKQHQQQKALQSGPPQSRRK
Sequence,6-mer SELEX enrichment z-score (IMP3 KH1-4),6-mer SELEX enrichment z-score (IMP3 RRM1-2),6-mer SELEX enrichment z-score (IMP3 full-length),6-mer SELEX enrichment z-score (IMP3 KH1-2),6-mer SELEX enrichment z-score (IMP3 KH3-4)
CACAAG,-0.111,1.59,0.858,-0.082,-0.325
CAAATT,0.506,-0.235,-0.13,0.629,0.794
TACGCC,0.093,-0.31,-0.227,0.097,-0.365
GAACGA,-1.45,-2,-1.59,-1.43,-1.2
TACAGA,0.867,0.227,0.692,1.22,1.04
AGGCCC,-0.379,-0.586,-0.024,-0.199,-0.749
ATCCGT,-0.073,-0.071,0.058,0.072,-0.315
CGCGTT,-0.865,0.212,-0.215,-0.676,-0.576
GATACG,0.338,-0.616,-0.122,0.09,0.257
CAAGTA,-0.037,0.112,-0.053,-0.2,0.041
AGAGTC,0.327,-0.142,0.405,0.201,0.249
TCGAGA,-1.56,-0.215,-0.863,-1.38,-1.2
GTGGTA,-0.245,0.245,-0.028,-0.139,-0.025
AACCTC,-1.4,-0.486,-1.34,-1.27,-1.84
TAGAAC,-0.016,-0.632,-0.55,-0.125,0.188
AGCATC,0.311,0.626,1.36,-0.109,-0.335
TTGCGG,0.108,0.267,0.171,0.041,0.226
TTTACG,0.47,-0.115,0.002,0.358,0.637
TGGAGC,-0.873,-0.031,-0.24,-0.808,-0.672
AGGGGT,0.492,0.335,0.357,0.722,0.784
CAGTCT,-0.003,0.578,0.509,-0.022,-0.113
AAACGG,-0.792,-1.57,-0.883,-1.05,-0.308
ATCAAA,0.24,1.16,0.864,0.352,0.439
CTAAGA,-0.162,-0.722,-0.737,-0.291,0.133

Sequence,6-mer SELEX enrichment z-score (IMP3 KH1-4),6-mer SELEX enrichment z-score (IMP3 RRM1-2),6-mer SELEX enrichment z-score (IMP3 full-length),6-mer SELEX enrichment z-score (IMP3 KH1-2),6-mer SELEX enrichment z-score (IMP3 KH3-4)
GATGTA,0.332,-0.444,-0.309,0.111,0.518
AGGAAG,1.01,-0.687,0.115,0.789,0.959
ACTTTA,1.01,-0.091,-0.117,1.01,1.3
ACCATG,0.139,0.618,0.037,-0.006,-0.222
CCTTCC,0.101,-0.111,-0.703,0.211,-0.65
CCGTCG,-0.199,0.119,0.462,-0.184,-0.418
GATAGG,0.744,-0.024,0.241,0.625,0.932
AAGCTC,-0.564,-0.236,-0.28,-0.493,-0.537
TTGGGC,-0.799,0.417,-0.103,-0.593,-0.464
CAAAAC,-2.08,-0.182,-1.42,-1.54,-2.11
AATATT,1.95,-0.217,0.282,1.76,2.8
AATCCT,0.119,-0.458,-0.632,0.063,-0.184
TAAAGG,0.276,-0.654,-0.289,0.133,0.867
GGTGTT,-0.194,0.496,0.04,-0.039,0.109
TCCCAA,-1.71,-0.853,-1.56,-1.63,-2.05
ATTTAC,1.38,0.132,0.455,1.44,1.72
TCAGCA,0.23,1.21,1.42,0.167,-0.006
CGCACT,0.416,0.286,0.486,0.437,0.024
ACAATC,0.408,2.21,1.13,0.584,-0.097
ACGCTT,-0.02,-0.035,-0.134,0.113,-0.028
GTATCT,-0.397,0.344,-0.066,-0.271,-0.17
CTCTGT,0.19,0.141,0.033,0.131,-0.009
ACCTCT,-0.563,-0.123,-0.684,-0.471,-0.761
CGTTCC,-0.307,0.037,-0.137,-0.284,-0.607

Sequence,6-mer SELEX enrichment z-score (IMP3 KH1-4),6-mer SELEX enrichment z-score (IMP3 RRM1-2),6-mer SELEX enrichment z-score (IMP3 full-length),6-mer SELEX enrichment z-score (IMP3 KH1-2),6-mer SELEX enrichment z-score (IMP3 KH3-4)
ATTGCG,-0.26,0.093,-0.2,-0.344,-0.061
ACGAGT,-1.79,-0.397,-0.904,-1.73,-1.51
TGTAGC,-0.704,-0.014,-0.533,-0.722,-0.562
ACATCT,0.208,0.699,0.665,0.123,-0.23
CTATGG,0.189,0.235,0.052,0.144,0.26
TCTAAG,-0.23,-0.134,-0.346,-0.285,-0.123
TTGGAT,0.148,0.303,0.011,0.095,0.309
CCGGCG,-0.78,0.066,0.665,-0.583,-0.592
ACCCAA,-3.58,-1.56,-3.2,-3.57,-4.18
CGTCGC,-0.148,0.328,0.523,-0.177,-0.264
CGTTAG,-0.325,0.056,-0.196,-0.328,-0.225
GGTAAG,0.186,-0.151,0.049,0.164,0.342
GAGTGG,-0.042,-0.034,0.073,0.051,0.113
GTGAAA,-0.231,-1.37,-1.02,-0.432,0.148
GCGCGG,-0.112,0.061,0.748,0.055,-0.009
CCAATT,0.059,-0.172,-0.418,-0.027,-0.235
ACGTTA,-0.323,-0.24,-0.505,-0.464,-0.288
AAGGAA,0.68,-1.25,-0.727,0.287,1.1
CATGCA,1.64,1.49,1.97,1.4,0.852
GGGAGC,0.005,-0.112,0.348,0.218,0.178
GCGTAT,-1.81,0.086,-0.963,-1.63,-1.45
GTGCGC,-0.006,0.077,0.254,0.046,-0.094
CTGCAC,0.819,0.294,0.645,0.794,-0.046
TTACCC,-0.879,-0.424,-0.909,-0.879,-1.27

Sequence,6-mer SELEX enrichment z-score (IMP3 KH1-4),6-mer SELEX enrichment z-score (IMP3 RRM1-2),6-mer SELEX enrichment z-score (IMP3 full-length),6-mer SELEX enrichment z-score (IMP3 KH1-2),6-mer SELEX enrichment z-score (IMP3 KH3-4)
CCGTAA,-0.648,-0.935,-0.741,-0.463,-0.704
CCGCGT,-1.97,-0.186,-0.799,-1.68,-1.72
GTATGT,0.1,0.157,-0.144,0.052,0.231
GTGGAA,0.125,-0.436,-0.286,0.009,0.154
ATTACA,2.27,0.979,1.27,2.71,2.77
TCAACT,0.401,0.578,0.439,0.426,0.252
GGAAAG,0.382,-1.16,-0.454,0.222,0.599
CAATCT,0.042,0.644,0.138,0.016,-0.227
GAATAT,1.44,-0.622,-0.152,1.04,2.1
GCCAAT,0.108,-0.127,0.085,0.064,0.157
TGGTTT,0.006,0.509,0.106,0.078,0.282
GGCGCT,-0.133,0.471,0.61,0.021,0.111
TAGGGT,0.16,0.392,0.265,0.243,0.468
TCCGGA,0.048,-0.522,-0.15,0.036,-0.102
GCGCAG,-0.888,0.136,0.042,-0.683,-0.716
CGTCGT,-0.476,0.372,0.08,-0.398,-0.264
GGAGCA,0.349,0.468,0.831,0.317,0.279
TAGTTC,-0.137,0.501,-0.014,-0.105,-0.034
CGCTAA,0.06,-0.419,-0.347,0.127,0.057
ATGGCG,0.625,0.328,0.514,0.509,1.17
GTCGCG,0.025,0.333,0.384,0.082,0.061
TGATTT,1.04,0.092,0.066,0.839,1.36
GAAACA,0.112,-0.185,0.116,0.305,0.625
AAGCTG,-0.354,-0.508,-0.519,-0.463,-0.387

Sequence,6-mer SELEX enrichment z-score (IMP3 KH1-4),6-mer SELEX enrichment z-score (IMP3 RRM1-2),6-mer SELEX enrichment z-score (IMP3 full-length),6-mer SELEX enrichment z-score (IMP3 KH1-2),6-mer SELEX enrichment z-score (IMP3 KH3-4)
TAATAC,1.26,-0.356,0.004,1.21,1.5
GTCCTC,0.051,0.089,0.093,-0.061,-0.312
CTCATC,0.191,1.19,0.833,0.242,-0.224
AACGCC,-0.877,-1.22,-0.942,-0.665,-1.37
AGGAAT,0.772,-0.497,-0.235,0.479,1.05
GCCTGC,-0.485,-0.023,-0.045,-0.273,-0.583
ACGGTT,-0.188,0.028,-0.162,-0.282,-0.107
GATTAC,0.542,-0.408,-0.237,0.469,0.689
AACAAC,0.261,0.911,0.349,0.899,0.334
ACATGT,1.18,0.741,0.946,0.734,0.962
AAAATA,0.953,-2.25,-1.29,1.02,2.73
GGGCGG,-0.05,0.187,0.824,0.4,0.182
TCCGAC,-1.22,-0.521,-0.753,-1.03,-1.41
ATGCGC,-0.067,-0.033,0.116,-0.052,-0.024
TAAGCC,-0.351,-0.565,-0.644,-0.35,-0.434
GCCACA,1.11,1.06,1.57,0.907,0.381
CGCCAT,0.667,0.221,0.853,0.67,0.251
ACATTG,0.78,0.767,0.918,0.642,0.694
GAGGGC,0.375,-0.079,0.753,0.594,0.637
CGGCGA,0.178,-0.128,1.28,-0.006,0.478
CGCCTG,-0.553,-0.174,-0.288,-0.35,-0.73
TAGGTA,-0.072,0.236,0.043,-0.081,0.169
TGTTGC,-0.07,0.316,-0.172,-0.102,-0.076
CCCATC,-0.599,0.435,0.147,-0.458,-1.18
